Test results: patent CN115010810A (NANJING SANHOME PHARMACEUTICAL CO LTD, dated 2022)

Tests used:
[1] = target: 人PD-1-His蛋白 (自产; human PD-1 extracellular domain with His tag) (human, UniProt Q15116 in part); experiment: BLI (Fortebio Octet RED96), antibody on AHC sensor, PD-1-His as analyte
[2] = target: T1, human CTLA-4 on the surface of CHO-K1-CTLA-4 cells (human, UniProt P16410 36-223); experiment: FACS on CHO-K1-CTLA-4 cells
T1 construct: also called 细胞表面hCTLA-4; CTLA-4 on CHO-K1-PD1-CTLA-4 cells
T1 sequence: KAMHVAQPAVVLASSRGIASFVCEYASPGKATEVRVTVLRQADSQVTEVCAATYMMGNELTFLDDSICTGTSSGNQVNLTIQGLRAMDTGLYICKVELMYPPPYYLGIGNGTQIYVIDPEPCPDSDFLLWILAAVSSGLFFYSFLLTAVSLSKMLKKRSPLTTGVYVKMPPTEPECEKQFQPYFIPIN

[3] = target: T2, 人CTLA-4-His蛋白 (human CTLA-4 extracellular domain fused to His tag) (human, UniProt P16410 36-161); experiment: ELISA, human CTLA-4-His coated
T2 construct: also called hCTLA-4-His
T2 sequence: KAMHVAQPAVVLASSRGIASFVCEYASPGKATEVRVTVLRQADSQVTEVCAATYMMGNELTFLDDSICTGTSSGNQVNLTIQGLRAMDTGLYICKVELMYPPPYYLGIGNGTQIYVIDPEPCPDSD

[4] = target: T3, PD-1 on the surface of hPD-1-CHO-K1 cells (human, UniProt Q15116 25-288); experiment: FACS on CHO-K1-PD-1 cells
T3 construct: also called 细胞表面PD-1; CHO-K1-PD-1

binding result [1]: binds
binding result [2]: binds
binding result [3]: binds
binding result [4]: binds
B1: BsAB0192-1 (bispecific antibody, human IgG4 S228P, kappa)
heavy: QVQLVQSGAEVKKPGASVKVSCKASGYTFTWYHMSWVRQAPGQGLEYMGYINTRSGDTYYNEKFKGRVTMTTDTSTSTAYMELRSLRSDDTAVYYCARSGYGGSDYWGQGTLVTVSSASTKGPSVFPLAPCSRSTSESTAALGCLVKDYFPEPVTVSWNSGALTSGVHTFPAVLQSSGLYSLSSVVTVPSSSLGTKTYTCNVDHKPSNTKVDKRV[omitted - human IgG4 Fc with S228P (EU numbers)]GGGGSGGGGSGGGGSQVQLVESGGGVVQPGRSLRLSCAASGFTFSNYAMSWVRQAPGKGLEWVAEISYSGTYSYHSDTVTGRFTISRDNSKNTLYLQMSSLRAEDTAVYYCTRRDYDNEMDYWGQGTLVTVSSGGGGSGGGGSGGGGSGGGGSDIQMTQSPSSLSASVGDRVTITCRTSQVITNYLNWYQQKPGKAPKLLIYYTSRLHSGVPSRFSGSGSGTDYTLTISSLQPEDFATYYCQQFGKRPPTFGGGTKVEIK
light: DIVMTQSPDSLAVSLGERATINCKSSQNLLYSENKKNSLAWYQQKPGQPPKLLISWASTREFGVPDRFSGSGSGTDFTLTISSLQAEDVAVYYCEQYYDILPTFGGGTKVEIKRTVAAPSVFIFPPSDEQLKSGTASVVCLLNNFYPREAKVQWKVDNALQSGNSQESVTEQDSKDSTYSLSSTLTLSKADYEKHKVYACEVTHQGLSSPVTKSFNRGEC
notes: BsAB0192-1 = ScFv-[P01-22-C92-11]; also called ScFv-[P01-22-C92-11]; 抗CTLA-4/抗PD-1双特异性抗体
